Source: paper PMC4275594 (Nature Communications, 2014)

Biological target: T1, C-terminal 6xHis tagged IL-18Rβ extracellular domains (residues 15-356), for SPR (human, UniProt O95256-1 15-356)
T1 construct: human IL-18 receptor β, extracellular domains, residues 15-356 of NM_003853; also called IL-18Rβ WT; IL-18Rβ WT (control); source: silkworm (B. mori) larvae, BmNPV bacmid, haemolymph, purified as from Sf9; not shown: 6xHis, C-terminal, kept
T1 sequence (looked up): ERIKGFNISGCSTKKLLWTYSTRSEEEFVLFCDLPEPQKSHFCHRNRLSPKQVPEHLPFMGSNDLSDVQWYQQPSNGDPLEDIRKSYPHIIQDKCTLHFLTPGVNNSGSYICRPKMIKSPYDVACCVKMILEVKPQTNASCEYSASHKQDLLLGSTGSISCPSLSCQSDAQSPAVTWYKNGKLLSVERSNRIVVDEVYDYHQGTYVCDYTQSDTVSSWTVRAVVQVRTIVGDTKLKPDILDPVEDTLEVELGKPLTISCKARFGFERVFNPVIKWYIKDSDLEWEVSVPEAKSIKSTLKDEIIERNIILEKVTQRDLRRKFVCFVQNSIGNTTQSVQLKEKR
Assay: SPR; BIAcore 3000, 25 °C, C-terminal 6xHis IL-18Rβ immobilised (~100 RU) on an NTA sensor chip, un-tagged IL-18Rα saturated with 500 nM IL-18 as analyte in HBS-P
Conditions: both partners purified

Kd: 60 nM
B1: IL-18 M150A/IL-18Rα WT complex (SPR analyte) (complex)
chain 1: [no letters for about 150 residues with changes]
chain 2: ESCTSRPHITVVEGEPFYLKHCSCSLAHEIETTTKSWYKSSGSQEHVELNPRSSSRIALHDCVLEFWPVELNDTGSYFFQMKNYTQKWKLNVIRRNKHSCFTERQVTSKIVEVKKFFQITCENSYYQTLVNSTSLYKNCKKLLLENNKNPTIKKNAEFEDQGYYSCVHFLHHNGKLFNITKTFNITIVEDRSNIVPVLLGPKLNHVAVELGKNVRLNCSALLNEEDVIYWMFGEENGSDPNIHEEKEMRIMTPEGKWHASKVLRIENIGESNLNVLYNCTVASTGGTDTKSFILVRKADMADIPGHVFTR
modifications: IL-18Rα N-glycosylated (insect/silkworm expression)
